The full ranking holds about 18,000 sequences; the median of “TetR repression strength (sort-seq, GFP reporter)” is about 0.23, and the highest 2% start at about 0.68. This is one part of the list.

The assay has as its target TetR (class B, Tn10) (UniProt P04483). Briefly: TetR repression strength (sort-seq, GFP reporter) (relative to tetO2 = 1); higher = stronger repression. Particulars: E. coli. The method, boiled down: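 In LB with 50 µg/mL chloramphenicol, E. coli SIG10-MAX holding a low-copy library with eight randomized operator positions between a constitutive promoter and sfGFP, plus constitutive TetR, grew for 5 h at 37 °C. FACS then sorted 10^6 cells into 13 fluorescence bins for Illumina sequencing of each bin. Repression strength equals the top bin index plus one less the read-weighted mean bin, normalized to the unaltered operator. Values from three independent transformations were averaged when reads were ≥30 in every replicate and the CV was ≤0.5.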
Chain of UniProt P04483 (P04483 whole entry): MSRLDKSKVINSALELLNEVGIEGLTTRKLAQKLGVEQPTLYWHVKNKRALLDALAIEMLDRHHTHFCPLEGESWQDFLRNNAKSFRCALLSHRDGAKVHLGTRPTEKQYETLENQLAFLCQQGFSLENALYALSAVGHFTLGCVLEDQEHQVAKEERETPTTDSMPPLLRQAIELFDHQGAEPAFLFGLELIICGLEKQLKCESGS
TCCCTTCTAGTGACCGAGA: the TetR repression strength stood at 0.316.
For TCCCGTTAAGTTTTCGAGA the value was 0.284; for TCCCAGCAAGTAGTGGAGA, 0.222.
For TCCCATTCAGTTATTGAGA the value was 0.55; for TCCCGTGGAGTCCTTGAGA, 0.304.
TCCCTACTAGTTAACGAGA gave a TetR repression strength of 0.438.
Consider TCCCTGTCAGTTTAGGAGA, for which the TetR repression strength was determined as 0.31.
Next, TCCCTTAAAGTGTGGGAGA: 0.212; TCCCGTCCAGTAAGGGAGA: 0.415.
For the sequence TCCCCTATAGTGAGGGAGA, the TetR repression strength is 0.176.
TCCCAGGCAGTGGGTGAGA: the TetR repression strength came out at 0.095.
For TCCCCTGGAGTAAGAGAGA the value was 0.239; for TCCCGTGAAGTGAGGGAGA, 0.313.
For TCCCGTTGAGTCGCTGAGA the value was 0.146.
In turn, TCCCGTAGAGTTCGGGAGA had a TetR repression strength of 0.158.
TCCCTGCTAGTACGGGAGA gave a TetR repression strength of 0.163.
Next, TCCCTGGTAGTGTGAGAGA: 0.181.
For TCCCATTCAGTACTAGAGA the value was 0.419; for TCCCTTCTAGTCGGTGAGA, 0.311; for TCCCCCTCAGTTGATGAGA, 0.262.
On to TCCCAACGAGTCGTAGAGA, for which the TetR repression strength came out at 0.181.
Next, TCCCAGGCAGTCCAGGAGA: 0.146.
Sequence TCCCGCTTAGTCAGTGAGA yielded a TetR repression strength of 0.106.
For TCCCTGATAGTCGCTGAGA the value was 0.234; for TCCCAATCAGTGACAGAGA, 0.723; for TCCCAGTAAGTAGCTGAGA, 0.19.
In turn, TCCCGGGCAGTGACGGAGA registered a TetR repression strength of 0.16.
Next, TCCCTACTAGTTACAGAGA: 0.0592; TCCCTATGAGTATGTGAGA: 0.199; TCCCGCGGAGTTCACGAGA: 0.435.
For TCCCAGTCAGTAGGAGAGA the value was 0.126.
TCCCACCGAGTTAGAGAGA gave a TetR repression strength of 0.334.
Next, TCCCGGCAAGTTGCGGAGA: 0.272; TCCCGGCTAGTATTGGAGA: 0.205; TCCCAGGCAGTATCGGAGA: 0.241.
For TCCCGTAGAGTTTGGGAGA the value was 0.31; for TCCCTCAAAGTGATAGAGA, 0.399.
For TCCCAGAGAGTCGTGGAGA the value was 0.333.
Sequence TCCCGAAAAGTCGGGGAGA had a TetR repression strength of 0.22.
Regarding TCCCTGGGAGTAATGGAGA, the TetR repression strength came out at 0.27.
Consider TCCCGTGCAGTGTATGAGA, for which the TetR repression strength amounted to 0.0671.
In the case of TCCCGGTCAGTCCGTGAGA, the TetR repression strength was found to be 0.223.
Take TCCCGGAGAGTTGAGGAGA: the TetR repression strength was found to be 0.193.
The sequence TCCCACCGAGTGTGGGAGA had a TetR repression strength of 0.0148.
TCCCCTCGAGTTGGCGAGA yielded a TetR repression strength of 0.274.
Sequence TCCCGACTAGTAAGTGAGA showed a TetR repression strength of 0.173.
For TCCCAACGAGTGACTGAGA the value was 0.196; for TCCCGTATAGTGTTGGAGA, 0.0518.
For TCCCATGGAGTAAGCGAGA the value was 0.0864; for TCCCGCAAAGTTGCCGAGA, 0.0632.
Consider TCCCGCTCAGTGGATGAGA, for which the TetR repression strength is 0.273.
TCCCGAGTAGTCTTGGAGA: the TetR repression strength is 0.0312.
Next, TCCCCAAGAGTCATTGAGA: 0.24; TCCCTGCCAGTCTGTGAGA: 0.21.
For TCCCGAGCAGTTGCGGAGA, the TetR repression strength was found to be 0.167.
Next, TCCCATGGAGTGACTGAGA: 0.231; TCCCGAGCAGTTAATGAGA: 0.363.
For TCCCCAAGAGTATAAGAGA, the TetR repression strength came out at 0.301.
For TCCCCTTCAGTCTTTGAGA, the TetR repression strength is 0.483.
Take TCCCCGCGAGTGGAAGAGA: the TetR repression strength came out at 0.222.
For TCCCGTGTAGTACCCGAGA the value was 0.0328; for TCCCGGTCAGTGGCCGAGA, 0.523; for TCCCCTTGAGTTCGCGAGA, 0.207.
As to TCCCATATAGTGGGGGAGA, the TetR repression strength is 0.184.
For the sequence TCCCGTGGAGTACGGGAGA, the TetR repression strength amounted to 0.196.
Next, TCCCCAACAGTTATAGAGA: 0.245; TCCCCCGGAGTTGGAGAGA: 0.246.
For TCCCTTCGAGTTGGGGAGA the value was 0.151; for TCCCCGCCAGTTCGAGAGA, 0.0306.
Turning to TCCCGTACAGTGCCGGAGA, the TetR repression strength is 0.198.
Next, TCCCGGTGAGTTCGTGAGA: 0.511.
Next, TCCCGCGCAGTAATGGAGA: 0.073.
Next, TCCCTTCAAGTGGTTGAGA: 0.0288.
Sequence TCCCAATCAGTTCTTGAGA yielded a TetR repression strength of 0.602.
The sequence TCCCGGAGAGTCTGGGAGA gave a TetR repression strength of 0.219.
Next, TCCCCAAGAGTGCGTGAGA: 0.125; TCCCACAGAGTGGGTGAGA: 0.129; TCCCGCTTAGTTCCCGAGA: 0.355.
Next, TCCCGGGTAGTTAACGAGA: 0.138; TCCCCCGGAGTAATGGAGA: 0.
With TCCCTGACAGTAGTAGAGA, the TetR repression strength came out at 0.541.
The sequence TCCCCGATAGTGGCCGAGA showed a TetR repression strength of 0.0907.
In the case of TCCCTAAAAGTCAGTGAGA, the TetR repression strength was found to be 0.173.
Next, TCCCGTGCAGTGGGCGAGA: 0.514; TCCCCTGCAGTGTGTGAGA: 0.483; TCCCGGTTAGTGGCTGAGA: 0.509.
Next, TCCCTTTGAGTGGCAGAGA: 0.52; TCCCGTGCAGTGGATGAGA: 0.264.
As to TCCCCGGAAGTGTCTGAGA, the TetR repression strength was found to be 0.295.
TCCCAAAGAGTCGTGGAGA returned a TetR repression strength of 0.118.
For TCCCATGGAGTAGCTGAGA, the TetR repression strength stood at 0.282.
The sequence TCCCTAAGAGTGCTGGAGA gave a TetR repression strength of 0.768.
The sequence TCCCCTGTAGTTGGCGAGA gave a TetR repression strength of 0.196.
For TCCCCGGTAGTGGCAGAGA the value was 0.182; for TCCCAAAGAGTTAAGGAGA, 0.124.
As for TCCCGTTAAGTTGTTGAGA, the TetR repression strength came out at 0.181.
For TCCCTCGGAGTGGGAGAGA the value was 0.217; for TCCCCGATAGTTAGAGAGA, 0.237.
In turn, TCCCTCGGAGTTTAAGAGA showed a TetR repression strength of 0.496.
For TCCCGGATAGTTTAGGAGA the value was 0.295; for TCCCGTGGAGTACTAGAGA, 0.229; for TCCCCGCTAGTGTGCGAGA, 0.515.

Values taken from a collection of fitness landscapes (doi:10.1038/s41467-024-54723-y).
